Experimental data taken from PubChem BioAssay AID2676 (National Center for Advancing Translational Sciences (NCATS), 2010).
Among all 370,000 compounds or so, about 1,100 (0.3%) were called active. Inconclusive results, whose numbers are uncertain, are shown with a selection of clear calls. The call rests on the fitted dose curve; in most records, active means well fitted activation curve with a large enough effect; inconclusive means small, poorly fitted or top-dose-only effect; inactive means flat fitted curve, though single readings scatter. Potencies beside an inconclusive call are fits to weak or partial responses and may not hold up.

Target: Relaxin receptor 1 (Homo sapiens) (UniProt Q9HBX9)
Assay: qHTS Assay for Agonists of the Relaxin Receptor RXFP1; further: nearly all actives have a fitted effect of over 60% in size
Details: HEK293T-RXFP1 cAMP TR-FRET, 30 min; series mostly up to 57.5 µM; activation: at the top concentration
In short: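 cAMP rise read by TR-FRET after 30 min, 37C compound exposure (up to 58 uM) in RXFP1-transfected HEK293 cells with Ro 20174 present. EC50 from Hill-equation fits, with 29 nM porcine relaxin as 100% and buffer as basal.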
On the % scale 0 is the no-effect control and ±100 the full control effect; potency means the concentration at half of the fitted maximal effect; tags describe the fitted curve by direction and shape.

Chain of UniProt Q9HBX9 (Q9HBX9 whole entry, looked up): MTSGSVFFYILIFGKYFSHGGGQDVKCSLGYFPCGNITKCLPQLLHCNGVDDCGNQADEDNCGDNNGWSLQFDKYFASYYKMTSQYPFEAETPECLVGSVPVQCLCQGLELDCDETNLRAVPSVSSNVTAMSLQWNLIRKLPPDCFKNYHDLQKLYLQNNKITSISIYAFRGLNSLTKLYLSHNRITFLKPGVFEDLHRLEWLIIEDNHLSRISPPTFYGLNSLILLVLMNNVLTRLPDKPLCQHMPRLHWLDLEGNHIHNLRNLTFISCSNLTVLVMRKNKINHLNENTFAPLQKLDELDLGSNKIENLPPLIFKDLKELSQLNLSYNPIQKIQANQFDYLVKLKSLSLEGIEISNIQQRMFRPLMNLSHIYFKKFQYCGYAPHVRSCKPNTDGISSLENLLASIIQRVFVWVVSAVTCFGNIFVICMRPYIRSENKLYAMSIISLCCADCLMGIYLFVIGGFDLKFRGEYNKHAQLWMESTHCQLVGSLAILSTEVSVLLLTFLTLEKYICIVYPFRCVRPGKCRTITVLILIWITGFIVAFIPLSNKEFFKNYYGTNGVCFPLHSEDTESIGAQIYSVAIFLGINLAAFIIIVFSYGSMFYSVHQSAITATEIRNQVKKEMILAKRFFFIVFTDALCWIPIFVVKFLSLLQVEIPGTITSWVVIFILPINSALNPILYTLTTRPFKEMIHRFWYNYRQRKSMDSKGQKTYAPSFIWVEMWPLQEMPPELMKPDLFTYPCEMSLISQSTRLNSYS

Row | SMILES | Potency | activation
1 | Cn1c2ccc(F)cc2c2nnc(SCCN3CCCCC3)nc21 | inconclusive: 28.2 µM [activator, partial curve] | 
2 | CCCn1c(SCC(=O)Nc2ccc(NC(=O)CC)cc2)nc2c1c(=O)n(C)c(=O)n2C | active: 20 µM | 
3 | N#Cc1c(NC(=O)C2CC(c3ccccc3O)=NO2)sc2c1CCC2 (configuration not stated) |  | inactive: -0.0675%
4 | Cc1cccc(C(=O)Nc2cccc(C(=O)OCc3cc(=O)n4nc(C5CC5)sc4n3)c2)c1 | inconclusive: 31.6 µM [activator, single point] | 
5 | CCC(Sc1ccc2nnc(-c3ccc(OC)c(OC)c3)n2n1)C(=O)O (configuration not stated) | inconclusive: 28.2 µM [activator, partial curve] | 
6 | COc1cccc(CNC(=O)CSc2nc3ccccc3nc2Cc2ccc(C)cc2)c1OC | inconclusive: 17.8 µM [activator, partial curve] | 
7 | COc1ccc(C(=O)Nc2nnc(Cc3cccs3)s2)cc1OC | inconclusive: 39.8 µM [activator, single point] | 
8 | O=C(CSc1nc(-c2ccccc2F)nc2nc[nH]c12)Nc1c(Cl)cc(Cl)cc1Cl | inconclusive: 158 µM [activator, partial curve] | 
9 | O=c1[nH]c(=S)[nH]cc1Oc1ccc(Cl)cc1Cl | inconclusive: 17.8 µM [activator, partial curve] | 
10 | N#Cc1cnc2cc(-c3ccccc3)nn2c1N | inconclusive: 39.8 µM [activator, single point] | 
11 | CCOc1ccc(NC(=O)CSc2ncc3c(n2)-c2cc(Cl)ccc2N(C)S3(=O)=O)cc1 | inconclusive: 39.8 µM [activator, single point] | 
12 | CCCn1c(SCC(=O)N2CCN(CC)CC2)nc2c1c(=O)n(C)c(=O)n2C | inconclusive: 17.8 µM [activator, partial curve] | 
13 | COc1cc2nc(=S)n3[nH]c(CCn4nc(C)cc4C)nc3c2cc1OC | inconclusive: 22.4 µM [activator, partial curve] | 
14 | CCOc1ccc(S(=O)(=O)Nc2nc3ccccc3nc2-n2ccc(=NC(=O)c3ccccc3C)cc2)cc1 | inconclusive: 28.2 µM [activator, single point] | 
15 | CCOc1ccccc1NC(=O)NCc1noc2ccc(C)cc12 |  | inactive: 1.88%
16 | Cc1[nH]nc2nc(SCC(=O)NC3CCCCC3)n(-c3ccc(Br)cc3)c(=N)c12 | inconclusive: 35.5 µM [activator, single point] | 
17 | COc1c(Cl)cc(Cl)cc1/C=C(\C#N)c1nc(-c2ccc(Cl)cc2)cs1 | inconclusive: 35.5 µM [activator, single point] | 
